Measured values from the supplement of paper PMC10126150.
Values marked as one replicate rest on one cluster of the flow cell; about a third of the high ones do not repeat.
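Note: ATP exposure 15 min at 22 °C before imaging.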

These sequences were tested on ATP (assay: switch fluorescence ratio, 500 uM ATP over buffer (Cy3 cluster intensity, sum of 5 cycles each) (fold (ratio)); higher = stronger signal-on switching upon ATP binding; sequences stand for … in TCGTCGGCAGCGTCAGATGTGTATAAGAGACAGTTTTTTTTTTTTTTTTTTTTTTTTT…TC). Details: aptamer strand: ATP DNA aptamer (quencher-CACCTGGGGGAGTATTGCGGAGGAAGG + anchor), 100 nM annealed; ATP concentration: 500 uM; one replicate.
Procedure, shortened: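 Cy3-labelled switching-strand clusters on a modified Illumina MiSeq flow-cell were annealed to 100 nM quencher-labelled ATP aptamer and imaged first in selection buffer, then after 15 min with 500 uM ATP at 22 °C. NaOH stripping and re-annealing separated each of five buffer/ATP cycles, and clusters outside 100-1000 RFU were excluded. The fluorescence ratio sums target-cycle Cy3 intensity over buffer-cycle Cy3 intensity per cluster and averages it per switch-domain sequence.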
AGCCCCTTAC showed a switch fluorescence ratio of 2.61. AGCCCGATGT gave a switch fluorescence ratio of 1.01. With AGCCGAGAC the switch fluorescence ratio was 1.12. For AGCCTACAAG, the switch fluorescence ratio was 0.984. With AGCCTATACA the switch fluorescence ratio was 1. Work on AGCCTCTTTA yielded a switch fluorescence ratio of 0.977. Sequence AGCCTGATGT has a switch fluorescence ratio of 0.973. Sequence AGCCTGCTAA has a switch fluorescence ratio of 1. With AGCCTGGTCG the switch fluorescence ratio was 1.03. With AGCCTGTTCT the switch fluorescence ratio was 0.971. For AGCCTTGGAG, the switch fluorescence ratio was 0.981. In the case of AGCGAAGATA, the switch fluorescence ratio is reported as 0.976. In the case of AGCGACCCTC, the switch fluorescence ratio is reported as 1.11. For AGCGAGATAG, the switch fluorescence ratio was 1.02. Work on AGCGAGATTT yielded a switch fluorescence ratio of 0.929. For AGCGAGGTAG, the switch fluorescence ratio was 0.962. Work on AGCGATGAAC yielded a switch fluorescence ratio of 1.55. In the case of AGCGCACCGG, the switch fluorescence ratio is reported as 1.02. Sequence AGCGCAGGGA has a switch fluorescence ratio of 1.03. AGCGCATGTA gave a switch fluorescence ratio of 0.987. With AGCGCGTGGT the switch fluorescence ratio was 0.99. Work on AGCGCTCATG yielded a switch fluorescence ratio of 1.03. Sequence AGCGCTCGGC has a switch fluorescence ratio of 0.996. Sequence AGCGGACTGA has a switch fluorescence ratio of 1.02. In the case of AGCGGAGGTA, the switch fluorescence ratio is reported as 0.964. In the case of AGCGGATATT, the switch fluorescence ratio is reported as 1.1. With AGCGGGACAG the switch fluorescence ratio was 1. In the case of AGCGGGCTG, the switch fluorescence ratio is reported as 0.99. With AGCGGGGAGC the switch fluorescence ratio was 1.04. In the case of AGCGGGTGGT, the switch fluorescence ratio is reported as 1. In the case of AGCGGTAATT, the switch fluorescence ratio is reported as 0.997. AGCGGTGGGT showed a switch fluorescence ratio of 1.02. AGCGGTTGAC was tested, and the switch fluorescence ratio was 1.08. Work on AGCGTCGCCT yielded a switch fluorescence ratio of 1.02. Sequence AGCGTCTTA has a switch fluorescence ratio of 1. In the case of AGCGTGGATC, the switch fluorescence ratio is reported as 1.12. AGCGTTCGCG gave a switch fluorescence ratio of 0.981. Work on AGCGTTTAAG yielded a switch fluorescence ratio of 1.01. For AGCGTTTTTG, the switch fluorescence ratio was 0.976. Work on AGCTAGATAT yielded a switch fluorescence ratio of 1.03. Sequence AGCTATGGGG has a switch fluorescence ratio of 0.979. Work on AGCTGACACT yielded a switch fluorescence ratio of 1.03. Work on AGCTGACGAA yielded a switch fluorescence ratio of 1.13. For AGCTGAGATA, the switch fluorescence ratio was 0.993. Work on AGCTGAGTG yielded a switch fluorescence ratio of 0.998. Sequence AGCTGTAAGG has a switch fluorescence ratio of 1. Work on AGCTGTCTGC yielded a switch fluorescence ratio of 1.22. Sequence AGCTGTTTCT has a switch fluorescence ratio of 0.983. For AGCTTATTTG, the switch fluorescence ratio was 1.01. Sequence AGCTTGACTT has a switch fluorescence ratio of 1.06. With AGCTTGCGTG the switch fluorescence ratio was 0.965. Work on AGCTTGCTCT yielded a switch fluorescence ratio of 0.99. AGCTTGTACA was tested, and the switch fluorescence ratio was 1. AGCTTGTGGC was tested, and the switch fluorescence ratio was 0.971. In the case of AGCTTTCCTT, the switch fluorescence ratio is reported as 1.1. In the case of AGCTTTTAAA, the switch fluorescence ratio is reported as 0.964. AGGAAACAGG showed a switch fluorescence ratio of 1.02. AGGAAACAGT was tested, and the switch fluorescence ratio was 1.01. For AGGAAACTGC, the switch fluorescence ratio was 0.973. With AGGAAATTCG the switch fluorescence ratio was 0.979. Work on AGGAACGACC yielded a switch fluorescence ratio of 0.974. With AGGAAGGGAT the switch fluorescence ratio was 0.955. AGGAATGTAA showed a switch fluorescence ratio of 1. AGGACAACGA was tested, and the switch fluorescence ratio was 1.01. AGGACAGTTG gave a switch fluorescence ratio of 0.962. Work on AGGACATGCT yielded a switch fluorescence ratio of 1.01. AGGACATTAA showed a switch fluorescence ratio of 1.01. AGGACCAACA showed a switch fluorescence ratio of 1.07. AGGACCTTGT gave a switch fluorescence ratio of 0.99. In the case of AGGACGCAGT, the switch fluorescence ratio is reported as 1. AGGACGTGAC gave a switch fluorescence ratio of 1.39. Work on AGGACGTGGG yielded a switch fluorescence ratio of 1.01. Sequence AGGACGTTT has a switch fluorescence ratio of 1.09. AGGACTCCTC showed a switch fluorescence ratio of 1.02. Sequence AGGAGAGTTC has a switch fluorescence ratio of 1.38. In the case of AGGAGCTATG, the switch fluorescence ratio is reported as 0.978. AGGAGGAA gave a switch fluorescence ratio of 1.02. Sequence AGGAGGCATC has a switch fluorescence ratio of 1.02. AGGAGGCCAC was tested, and the switch fluorescence ratio was 2.13. AGGAGTCAGC gave a switch fluorescence ratio of 1.06. Work on AGGAGTCGG yielded a switch fluorescence ratio of 0.941. AGGAGTCTG was tested, and the switch fluorescence ratio was 1.05. With AGGAGTCTGA the switch fluorescence ratio was 0.954. For AGGATAATTC, the switch fluorescence ratio was 1.04. With AGGATATGTA the switch fluorescence ratio was 0.94. With AGGATGAGGA the switch fluorescence ratio was 0.925. Work on AGGATGGTCT yielded a switch fluorescence ratio of 1. AGGATTGAGG gave a switch fluorescence ratio of 0.959. With AGGATTTCCA the switch fluorescence ratio was 0.991. Work on AGGATTTTGG yielded a switch fluorescence ratio of 1.01. Work on AGGCACAGTT yielded a switch fluorescence ratio of 0.957. In the case of AGGCACTCTA, the switch fluorescence ratio is reported as 1.09. AGGCAGAGAC showed a switch fluorescence ratio of 1.08. For AGGCATGTAC, the switch fluorescence ratio was 1.67. In the case of AGGCCCATTA, the switch fluorescence ratio is reported as 0.981. AGGCCGAGTG showed a switch fluorescence ratio of 0.988. Sequence AGGCCGATAA has a switch fluorescence ratio of 1.02. In the case of AGGCCGCCGT, the switch fluorescence ratio is reported as 0.955. AGGCCTGTCC gave a switch fluorescence ratio of 1.02. In the case of AGGCCTTTAC, the switch fluorescence ratio is reported as 1.06. AGGCGACGAG gave a switch fluorescence ratio of 1.01. Work on AGGCGAGAG yielded a switch fluorescence ratio of 0.997. For AGGCGAGATG, the switch fluorescence ratio was 1.01. With AGGCGGATAC the switch fluorescence ratio was 2.32. AGGCGGGTAC was tested, and the switch fluorescence ratio was 1.08. Sequence AGGCGTACAG has a switch fluorescence ratio of 0.991. With AGGCGTGTGC the switch fluorescence ratio was 1.05. For AGGCTAAGGC, the switch fluorescence ratio was 1.05. With AGGCTAAGGT the switch fluorescence ratio was 1.03. In the case of AGGCTAATT, the switch fluorescence ratio is reported as 1.04. In the case of AGGCTAGTGT, the switch fluorescence ratio is reported as 1.02. With AGGCTCCCGA the switch fluorescence ratio was 0.973. With AGGCTCTTTA the switch fluorescence ratio was 0.964. AGGCTGAAAC gave a switch fluorescence ratio of 1. Sequence AGGCTGACTC has a switch fluorescence ratio of 1.1. In the case of AGGCTGCCTC, the switch fluorescence ratio is reported as 1.02. For AGGCTGCTTC, the switch fluorescence ratio was 1.04. In the case of AGGCTGGGCA, the switch fluorescence ratio is reported as 1.01. Work on AGGCTTAGCT yielded a switch fluorescence ratio of 0.971. With AGGCTTATAG the switch fluorescence ratio was 1.03. Work on AGGGAAAAT yielded a switch fluorescence ratio of 1. AGGGAAACAC gave a switch fluorescence ratio of 1.03. In the case of AGGGAACGTC, the switch fluorescence ratio is reported as 0.946. AGGGACAAAG gave a switch fluorescence ratio of 0.97. In the case of AGGGACTGA, the switch fluorescence ratio is reported as 1.05. AGGGAGGCCC was tested, and the switch fluorescence ratio was 1.04. Sequence AGGGAGTCAT has a switch fluorescence ratio of 0.973. In the case of AGGGATAATG, the switch fluorescence ratio is reported as 1.01. AGGGATAGG was tested, and the switch fluorescence ratio was 1.84. For AGGGATAGGG, the switch fluorescence ratio was 1.02. In the case of AGGGCCATAT, the switch fluorescence ratio is reported as 1.03. Sequence AGGGCGTTA has a switch fluorescence ratio of 1. AGGGCTCGG gave a switch fluorescence ratio of 0.985. With AGGGCTTGCC the switch fluorescence ratio was 0.987. Work on AGGGCTTGG yielded a switch fluorescence ratio of 1.01. For AGGGGACCAG, the switch fluorescence ratio was 1.16. With AGGGGACTT the switch fluorescence ratio was 1.03. In the case of AGGGGACTTA, the switch fluorescence ratio is reported as 0.996. AGGGGAGGTT gave a switch fluorescence ratio of 1.01. With AGGGGATAT the switch fluorescence ratio was 1.03. For AGGGGCTAGT, the switch fluorescence ratio was 0.991. AGGGGGTGC gave a switch fluorescence ratio of 1.05. AGGGGTAACC showed a switch fluorescence ratio of 1.19. For AGGGGTAGAA, the switch fluorescence ratio was 0.972. Sequence AGGGTAACGC has a switch fluorescence ratio of 1.08. AGGGTAATG showed a switch fluorescence ratio of 1.01. For AGGGTACAGC, the switch fluorescence ratio was 1.05. With AGGGTATAAG the switch fluorescence ratio was 0.966. AGGGTCAAGT showed a switch fluorescence ratio of 0.998. AGGGTCCTAG was tested, and the switch fluorescence ratio was 0.959. In the case of AGGGTGAGTT, the switch fluorescence ratio is reported as 1.02. AGGGTGTCT gave a switch fluorescence ratio of 1.01. For AGGTAACCGA, the switch fluorescence ratio was 1. In the case of AGGTAACTCA, the switch fluorescence ratio is reported as 1.03. With AGGTAAGGCC the switch fluorescence ratio was 1.02. Sequence AGGTAAGGCG has a switch fluorescence ratio of 0.974. Work on AGGTACGTCC yielded a switch fluorescence ratio of 1.03. For AGGTAGCTCC, the switch fluorescence ratio was 0.993. Sequence AGGTAGGAAA has a switch fluorescence ratio of 0.967. For AGGTAGGGTT, the switch fluorescence ratio was 1.04. Work on AGGTATAGGC yielded a switch fluorescence ratio of 1.02. AGGTATGTA gave a switch fluorescence ratio of 0.962. Work on AGGTCAATGA yielded a switch fluorescence ratio of 1.01. In the case of AGGTCACCTT, the switch fluorescence ratio is reported as 1. AGGTCACGGA was tested, and the switch fluorescence ratio was 0.935. AGGTCCCTTC was tested, and the switch fluorescence ratio was 1.04. AGGTCCGTAC was tested, and the switch fluorescence ratio was 1.09. AGGTCGTACA was tested, and the switch fluorescence ratio was 0.994. AGGTGAAAGG was tested, and the switch fluorescence ratio was 0.985. With AGGTGACTTG the switch fluorescence ratio was 1.01. With AGGTGAGCCA the switch fluorescence ratio was 0.98. AGGTGCTCTA showed a switch fluorescence ratio of 1.05. Sequence AGGTGGGATA has a switch fluorescence ratio of 0.974. AGGTGTAAAA showed a switch fluorescence ratio of 0.997. For AGGTGTTGTT, the switch fluorescence ratio was 1.01. Work on AGGTTAGGTC yielded a switch fluorescence ratio of 0.993. AGGTTAGTTG gave a switch fluorescence ratio of 1.01. For AGGTTCCTGG, the switch fluorescence ratio was 0.962. AGGTTGCGTG was tested, and the switch fluorescence ratio was 0.973. AGGTTGGGCG showed a switch fluorescence ratio of 1. AGGTTTAGCG was tested, and the switch fluorescence ratio was 0.999. AGGTTTAGCT showed a switch fluorescence ratio of 1.01. AGGTTTCGAC showed a switch fluorescence ratio of 0.98. Sequence AGGTTTCGCT has a switch fluorescence ratio of 0.976. Sequence AGGTTTGAGA has a switch fluorescence ratio of 1.02. AGGTTTGTAT gave a switch fluorescence ratio of 1.01. Work on AGGTTTGTGC yielded a switch fluorescence ratio of 0.94. For AGTAAATCAG, the switch fluorescence ratio was 1. AGTAAATGT gave a switch fluorescence ratio of 1.01. For AGTAACTCAC, the switch fluorescence ratio was 1.15. In the case of AGTAAGCAAA, the switch fluorescence ratio is reported as 1.04. AGTAATAGTG showed a switch fluorescence ratio of 1.06. AGTAATGTTG showed a switch fluorescence ratio of 0.989. In the case of AGTACACCAG, the switch fluorescence ratio is reported as 1.07. Work on AGTACCCCGC yielded a switch fluorescence ratio of 1.2. AGTACCT gave a switch fluorescence ratio of 1.27. In the case of AGTACGTCTG, the switch fluorescence ratio is reported as 0.961. AGTACTCGGC gave a switch fluorescence ratio of 1.08. Sequence AGTACTGCGC has a switch fluorescence ratio of 1.03. For AGTACTGGCC, the switch fluorescence ratio was 1.1. AGTACTTTCG gave a switch fluorescence ratio of 0.974.
